{
  "source": "patent US5840740A",
  "about": "“Aminosterol compounds and a method of treating infection using the aminosterol compounds” (priority 1995, dated 1998)",
  "key": {"[1]": {"test": "Hematological profile in L1210-inoculated mice", "conditions": "in words"}, "[2]": {"test_system": "L1210 lymphoblastic leukemia", "test": "Mouse model of leukemia (survival)", "conditions": "1, 5, 10 mg/kg every 3 days i.p.", "procedure": "Because of its inhibitory activity on the growth of numerous cancer cells, compound 1436 was evaluated in a classical mouse model of leukemia (Baker et al., Cancer Res. 53, 1993, 3052-3057). C57B mice were inoculated with L1210 lymphoblastic leukemia cells at an inoculum that causes leukemia in 100% of animals. Mice received compound 1436 at 1, 5, 10 mg/kg every 3 days intraperitoneally."}},
  "data": [
    {"smiles": "CC(C)[C@@H](CC[C@@H](C)[C@H]1CC[C@H]2[C@@H]3[C@H](O)C[C@H]4C[C@@H](NCCCNCCCCNCCCN)CC[C@]4(C)[C@H]3CC[C@]12C)OS(=O)(=O)O", "note": "[Compound 1436]", "values": [
      {"measurement": "hematological profile", "setting": "[1]", "value": "near normal hematocrit, with evidence of a robust granulocyte count"},
      {"measurement": "prolongation of life", "setting": "[2]", "value": "significant prolongation of life was achieved with the highest dose"}
    ]}
  ]
}
